Experimental data from PubChem BioAssay AID760 (NMMLSC, 2007).
About 360 (0.19%) of roughly 190,000 compounds were called active. Inconclusive results, whose numbers are uncertain, are shown with a selection of clear calls.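 How the source made its calls: active means GTP binding activity at least 20 points away from 100%, either lowered or raised; inconclusive means signal likely due to the compound's own green fluorescence; inactive means the rest.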

target: Ras-related protein Rab-2A (Canis lupus familiaris) (UniProt P61105); assay: Rab2 wt fluorescent GTP binding changes, either direction – biochemical, dog, bead-based flow cytometry, multiplex, primary screen (AID 760); conditions: GST-Rab2 wt beads, Bodipy-GTP binding, at 10 µM;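 further: 0% = beads with excess unlabeled GTP and 100% = no-compound control corrected for plate trend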

SMILES | GTP binding activity
COCCCNC(=O)C12CCC(C)(C(=O)C1)C2(C)C (stereo not drawn) | inconclusive: 92%
COc1ccc(CC(=O)Nc2ccc(-c3ccc4nnc(C)n4n3)cc2)cc1OC | inactive: 94%
Cc1ccc(S(=O)(=O)N2CCN(c3nc(C)nc4sc5c(c34)CCC(C)C5)CC2)cc1 (stereo not drawn) | inconclusive: 93%
COc1cccc(/C=C/C(=O)OCC(=O)Nc2ccc(Cl)cn2)c1 | inactive: 88%
Cc1cccc(C)c1OCC(=O)Nc1ccc(N2CCOCC2)cc1 | inactive: 92%
COC(=O)C1CCN(CC(N)=O)CC1 | inconclusive: 109%
CCOC(=O)c1c(NC(=O)C2CC(Cl)=CCC2C(=O)O)sc2c1CC(C)(C)OC2 (stereo not drawn) | inconclusive: 93%
Cc1ccc([N+](=O)[O-])cc1NC(=O)C(Sc1ccccc1)c1ccccc1 (stereo not drawn) | inactive: 96%
COc1cc(/C=N/Nc2ccc(C)cc2)cc(Br)c1O | inactive: 94%
O=C(CSc1nncs1)NC1CCCc2ccccc21 (stereo not drawn) | inconclusive: 96%
CCNC(=S)N=Nc1c(O)[nH]c2ccc([N+](=O)[O-])cc12 | active: 65%
CCCn1c(N/N=C(C)\C=C\c2ccccc2)nc2c1c(=O)[nH]c(=O)n2C | inactive: 99%
Cc1ccc(CNC(=O)C2CCC(CNc3nc(=S)[nH]c4ccccc34)CC2)cc1 (stereo not drawn) | inconclusive: 93%
COc1cc(Cl)c(C)cc1NC(=O)c1ccc(NS(=O)(=O)c2ccc(F)c(F)c2)cc1 | inconclusive: 88%
CN1OC(CC(=O)O)N(c2ccc(Cl)cc2)C1=O (stereo not drawn) | inconclusive: 102%
CSc1ncccc1C(=O)Nc1nc2ccc(F)cc2s1 | inconclusive: 91%
COC(=O)CCc1sc(NC2CCCCC2)nc1-c1ccc(OC)cc1 | inconclusive: 96%
Cc1onc(-c2ccccc2Cl)c1C(=O)N1CCN(Cc2ccc3c(c2)OCO3)CC1 | inconclusive: 96%
Fc1cccc(Cl)c1CSc1ccc2nnc(-c3ccccn3)n2n1 | inconclusive: 92%
O=C1c2ccccc2C(=O)N1CCCCN(C(=O)c1cc2ccccc2oc1=O)c1ccc(Cl)cc1 | active: 46%
CCOC(=O)c1c(NC(=O)CSc2nc3ccccc3c(=O)n2-c2ccccc2)sc(C(C)=O)c1C | inconclusive: 107%
CCOC(=O)c1c2c3c(c(Cl)ccc3[nH]c1=O)C(=O)c1ccccc1-2 | active: 44%
CCCCCc1nc(-c2nonc2N)no1 | inconclusive: 89%
Cc1ccc(NC(=S)N2CCC(c3ccccc3)C2)c(Cl)c1 (stereo not drawn) | inactive: 97%

SMILES | GTP binding activity
CC1CCCCN1S(=O)(=O)c1ccc(C(=O)Nc2nnc(-c3ccccn3)o2)cc1 (stereo not drawn) | inactive: 97%
O=C(NNc1nc(-c2ccccc2)c2cc(Br)ccc2n1)c1ccc(S(=O)(=O)N2CCOCC2)cc1 | active: 75%
C=CCOc1c(OC)cc(Cl)cc1C1NC(=O)NC(C)=C1C(C)=O (stereo not drawn) | inconclusive: 91%
CCN(CC)c1nc(=S)nc(NC(C)(C)C)[nH]1 | inactive: 97%
Nc1nc2c(c(=O)[nH]1)C(c1cccc3ccccc13)C1=C(N2)c2ccccc2C1=O (stereo not drawn) | active: 79%
CCN(CC)S(=O)(=O)c1ccc(C(=O)NCc2cccs2)cc1 | inconclusive: 90%
Nn1c(SCc2nc3ccccc3[nH]2)nnc1-c1ccccc1 | inconclusive: 91%
CC12CCC(C/C1=N/OC(=O)c1cccc([N+](=O)[O-])c1)C2(C)C (stereo not drawn) | inactive: 100%
CCCS(=O)(=O)NCCc1cc2c(C)ccc(C)c2[nH]c1=O | inconclusive: 92%
CC(C)Cn1c(SCC(=O)N2CCN(C(=O)c3ccco3)CC2)nc2ccccc2c1=O | inconclusive: 96%
COc1ccccc1OP(=O)(O)Oc1ccccc1OC | inconclusive: 98%
Cc1ccc2[nH]c(C(=O)NN=C3CCCCC3)c(-c3ccccc3)c2c1 | inactive: 98%
Cc1ccc2oc3c(c(=O)c2c1)C(c1ccc(F)cc1)N(CCCN1CCOCC1)C3=O (stereo not drawn) | inconclusive: 102%
CC1CCN(CCCNC(=O)c2ccc(Cn3c(=S)[nH]c4ccc(Br)cc4c3=O)cc2)CC1 | inactive: 102%
COc1cc2c(C)nc3onc(-c4ccccc4)c3c2cc1OC | inconclusive: 84%
CCOC(=O)c1nn(-c2ccc(F)cc2)c(C)c1C(C)=O | inconclusive: 100%
CC1CCN(CCCOc2ccc(Br)cc2Cl)CC1 | inconclusive: 95%
COc1ccc(C)cc1S(=O)(=O)N(C)CC(=O)NC1CC1 | inconclusive: 102%
COc1ccc(CS(=O)c2nc(C)cc(C)c2S(C)(=O)=O)cc1 (stereo not drawn) | inactive: 98%
O=C(c1cccc2ccccc12)N1CCN(c2ccccc2F)CC1 | inconclusive: 105%
COc1ccc(N(CC(=O)Nc2ccc3c(c2)OCO3)S(=O)(=O)c2ccc(C)cc2)cc1OC | inconclusive: 102%
COc1cc(/C=N/NS(=O)(=O)c2ccccc2)ccc1OS(=O)(=O)c1ccc(C)cc1 | inconclusive: 102%
COC(=O)CNC(=O)COC(=O)Cc1ccc(Cl)cc1 | inactive: 100%
O=CN1CCCN(Cc2nc(-c3cccc(Cl)c3)no2)CC1 | inactive: 94%

SMILES | GTP binding activity
Cc1cccc(N2CN(Cc3ccco3)CNC2=S)c1 | inactive: 99%
O=C(CCn1c(=O)[nH]c2ccsc2c1=O)NCc1ccc(F)cc1 | inactive: 97%
COc1ccc2nc(N3CCCC3)c(C#N)cc2c1 | inconclusive: 92%
CC1(C)CC(=O)c2ccc(O)cc2O1 | inactive: 97%
Cc1cccc(CN2CCN(C(=O)CCl)CC2)c1 | inactive: 102%
CSc1ncccc1C(=O)Nc1ccc(S(=O)(=O)NC2=NCCCCC2)cc1 | inconclusive: 106%
CCn1c(C)c(CS(=O)(=O)c2ccccc2)[nH]c1=O | inactive: 100%
Cn1c(=O)[nH]c(=O)c2c1nc1n2CCN1Cc1ccccc1 | inconclusive: 80%
CCC(C)Sc1nc2c(c(=O)[nH]1)C(c1cccs1)C1=C(CCCC1=O)N2 (stereo not drawn) | inconclusive: 89%
CCOc1c2ccc(C(=O)N[C@H](C)C3CCCCC3)cc2nn1CCOC | inconclusive: 146%
CCCCCc1c(O)nc(SCC(=O)NCC2CCCO2)[nH]c1=O (stereo not drawn) | inactive: 98%
COc1cccc(N2CC(O)=C(c3ccccc3)C2=N)c1 | inactive: 92%
CC(OCC(O)CN(C)Cc1nc2ccccc2c(=O)[nH]1)c1ccc(Cl)cc1 (stereo not drawn) | inactive: 96%
O=C(NC1CCCCC1)C(c1ccc(F)cc1)N(Cc1ccco1)C(=O)CN1C(=O)c2ccccc2S1(=O)=O (stereo not drawn) | inactive: 99%
O=C(Cn1nnc(-c2ccccc2)n1)NNC(=O)c1ccc(Br)cc1 | inconclusive: 93%
O=C1CC(c2cccs2)CC2=C1C(c1ccccc1)n1ncnc1N2 (stereo not drawn) | inconclusive: 120%
CC(=O)/C(N)=N/Nc1cccc(Cl)c1 | inconclusive: 97%
O=C(N/N=C/c1ccc(OCc2ccccc2)cc1)c1cccs1 | inconclusive: 92%
COC(=O)c1sccc1NC(=O)Cn1cnc2c1c(=O)n(C)c(=O)n2C | inconclusive: 101%
Cc1ccc(-c2[nH]nc(N)c2N=Nc2cccc(Cl)c2C)cc1 | inconclusive: 95%
O=C(NCc1cccnc1)c1ccc(-c2cccc(Cl)c2Cl)o1 | inconclusive: 92%
C=CCn1c(C)cc(C(=O)COC(=O)/C=C/c2cccc(OC)c2)c1C | inconclusive: 87%
Cn1nc(C(=O)OCC(=O)Nc2ccc3ccccc3c2)c2ccccc2c1=O | inconclusive: 89%
CCCC(=O)c1cc2c(cc1NC(=O)c1ccccc1F)OCCO2 | inactive: 98%

SMILES | GTP binding activity
CCC(C)(C(=O)NC1CCCC1)N(C)C(=O)c1ccccn1 (stereo not drawn) | inactive: 98%
CCOc1ccc(S(=O)(=O)N/N=C(\C)c2ccc(Cl)c(Cl)c2Cl)cc1 | inconclusive: 87%
N/C(=N\OC(=O)COc1cc(Cl)c(Cl)cc1Cl)c1ccccn1 | inactive: 95%
O=c1c2ccccc2c(=O)n(Cc2ccccc2)n1Cc1ccccc1 | inactive: 97%
COC(=O)c1cc2occc2n1Cc1c(F)cccc1Cl | inconclusive: 87%
Cc1cc(C(=O)COC(=O)CCC(=O)c2ccc3c(c2)OCCO3)c(C)n1Cc1ccco1 | inconclusive: 89%
Cc1cc(C)cc(OCC(=O)Nc2nonc2NC(=O)COc2cc(C)cc(C)c2)c1 | inactive: 95%
Cn1c(SCc2cc(=O)[nH]c3ccccc23)nnc1-c1ccco1 | inconclusive: 104%
O=C(O)/C=C/C(=O)NC1CCS(=O)(=O)C1 (stereo not drawn) | inconclusive: 99%
O=C(N/N=C/c1ccc(-c2ccccc2[N+](=O)[O-])o1)[C@H]1C[C@@H]1c1ccccc1 | inconclusive: 92%
N#CCCN(C(=O)COC(=O)c1cccc(S(=O)(=O)Nc2ccc([N+](=O)[O-])cc2)c1)c1ccccc1 | inconclusive: 93%
O=C(Nc1nc(-c2ccc(S(=O)(=O)N3CCCCCC3)cc2)cs1)c1ccccc1 | inconclusive: 93%
CCOC(=O)C1=C(c2ccccc2)Nc2nc(C)nn2C1c1cccc(OC)c1OC (stereo not drawn) | inactive: 100%
O=C1CS/C(=N/N=C2C3CC4CC(C3)CC2C4)N1 | inconclusive: 137%
O=C(NN=C1CCCC1)c1sc2ccccc2c1Cl | inconclusive: 93%
O=C(Nc1ccc(N2CCOCC2)nc1)c1ccc(C(F)(F)F)cc1 | inconclusive: 90%
Cc1cc(C)nc(NC(=O)COc2cc(Cl)cc(Cl)c2)n1 | inconclusive: 104%
CCCC(CCC(=O)Nc1cc([N+](=O)[O-])ccc1O)C(=O)O (stereo not drawn) | inconclusive: 91%
O=C(c1ccco1)N(Cc1ccccc1)Cc1ccccn1 | inactive: 96%
O=C(N/N=C\c1ccc(F)cc1)c1cc(OCC(F)(F)F)ccc1OCC(F)(F)F | inconclusive: 101%
N#CC(C#N)=Cc1ccc(-c2ccc(S(=O)(=O)N=C(N)N)cc2)o1 | inconclusive: 87%
